Laboratory results as given in PMC10148413.
Numbering of substitutions follows the chain as printed. No constants are given. Whether binding was seen depends on the method and setting. Some entries that bind do so weakly or less than the wild type. Tags and fused reporters may be left off the sequences shown. Blank lines part the entries; values can stand above or below the substance they belong to.

Protein sequences, listed by entry. Tags and fused reporters are not part of them. Lines headed by an entry give the natural chain unless they say otherwise; changes in a name come on top.
UniProt Q24572: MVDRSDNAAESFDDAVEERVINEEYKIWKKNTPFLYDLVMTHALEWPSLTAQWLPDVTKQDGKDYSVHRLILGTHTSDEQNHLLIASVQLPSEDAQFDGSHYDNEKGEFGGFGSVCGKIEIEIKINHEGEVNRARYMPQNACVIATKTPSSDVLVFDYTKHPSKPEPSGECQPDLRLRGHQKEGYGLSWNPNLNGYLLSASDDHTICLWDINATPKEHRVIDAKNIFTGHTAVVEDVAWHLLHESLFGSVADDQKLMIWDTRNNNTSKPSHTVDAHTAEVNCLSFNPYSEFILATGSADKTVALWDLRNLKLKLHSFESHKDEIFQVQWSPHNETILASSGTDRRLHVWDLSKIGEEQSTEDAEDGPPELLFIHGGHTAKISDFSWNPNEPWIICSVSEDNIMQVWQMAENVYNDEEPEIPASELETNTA

Experiments:
[1] = molecular target: T1, GST-CBM (Ash1 Caf1 Binding Motif, 1582–1616) (fly) (UniProt Q9VW15); test: pull-down; GST-Ash1 fragments held on GST resin; 200 µL of 0.1 mg/mL purified Caf1 added for 1 h; 150 mM NaCl, 50 mM Tris-HCl (8.0); bound proteins analysed by SDS-PAGE; both purified
T1 sequence: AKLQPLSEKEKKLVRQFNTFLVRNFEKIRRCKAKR

[2] = molecular target: T2, GST-CBM_(R1604A) (fly) (UniProt Q9VW15); test: as above
T2 sequence: T1 sequence with R23A

[3] = molecular target: T3, GST-CBM_(E1591A) (fly) (UniProt Q9VW15); test: as above
T3 sequence: T1 sequence with E10A

[4] = molecular target: T4, 6× His-tagged Ash1 (1041–2226 a.a.) (fly) (UniProt Q9VW15); test: co-purification (Ni-NTA, HiTrap Q HP, Superdex 200); His-tagged Ash1 (1041-2226), Mrg15 and Caf1 co-expressed in Sf9 cells; Ni-NTA with washes up to 1 M NaCl, tag cut by TEV, ion exchange and size exclusion in 300 mM NaCl, 50 mM Tris-HCl (8.0)
T4 sequence: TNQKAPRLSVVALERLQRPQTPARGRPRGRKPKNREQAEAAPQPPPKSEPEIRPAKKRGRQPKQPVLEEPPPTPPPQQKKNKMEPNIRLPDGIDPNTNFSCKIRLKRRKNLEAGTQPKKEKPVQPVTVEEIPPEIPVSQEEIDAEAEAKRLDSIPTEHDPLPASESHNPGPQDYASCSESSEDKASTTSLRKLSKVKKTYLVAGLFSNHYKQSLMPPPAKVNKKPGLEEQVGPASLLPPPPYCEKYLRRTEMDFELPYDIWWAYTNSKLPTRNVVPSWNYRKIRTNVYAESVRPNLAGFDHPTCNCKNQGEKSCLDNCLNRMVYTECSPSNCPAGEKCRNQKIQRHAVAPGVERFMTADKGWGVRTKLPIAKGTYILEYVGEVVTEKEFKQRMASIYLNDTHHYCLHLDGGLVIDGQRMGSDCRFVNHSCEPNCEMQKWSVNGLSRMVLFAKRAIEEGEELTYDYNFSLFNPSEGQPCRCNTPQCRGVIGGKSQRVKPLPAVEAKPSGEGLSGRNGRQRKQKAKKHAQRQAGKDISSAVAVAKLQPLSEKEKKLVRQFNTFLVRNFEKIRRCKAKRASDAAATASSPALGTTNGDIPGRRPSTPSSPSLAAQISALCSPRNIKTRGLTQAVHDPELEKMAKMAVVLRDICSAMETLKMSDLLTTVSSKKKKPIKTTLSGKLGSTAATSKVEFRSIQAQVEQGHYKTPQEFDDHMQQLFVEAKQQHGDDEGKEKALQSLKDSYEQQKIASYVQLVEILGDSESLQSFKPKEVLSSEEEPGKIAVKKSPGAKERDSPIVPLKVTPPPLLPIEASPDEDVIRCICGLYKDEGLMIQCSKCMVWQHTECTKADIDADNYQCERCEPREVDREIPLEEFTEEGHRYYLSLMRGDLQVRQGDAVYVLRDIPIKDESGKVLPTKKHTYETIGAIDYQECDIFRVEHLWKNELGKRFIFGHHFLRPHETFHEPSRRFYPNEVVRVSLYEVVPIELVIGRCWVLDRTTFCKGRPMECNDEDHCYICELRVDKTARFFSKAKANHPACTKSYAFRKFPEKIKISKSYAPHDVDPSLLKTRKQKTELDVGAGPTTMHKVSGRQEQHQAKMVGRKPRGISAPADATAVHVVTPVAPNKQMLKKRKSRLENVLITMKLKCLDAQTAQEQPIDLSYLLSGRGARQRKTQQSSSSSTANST

Substance: Fly Caf1 H4 binding pocket mutant (D362A/D365A) (from UniProt Q24572 1-430)
binding [1]: no binding (tested: 200 µL of 0.1 mg/mL purified Caf1)

Substance: Fly Caf1 wild-type (from UniProt Q24572 1-430)
binding [2]: no binding (tested: 200 µL of 0.1 mg/mL purified Caf1)
binding [3]: no binding (tested: 200 µL of 0.1 mg/mL purified Caf1)

binding [4]: binds
Substance: full-length Caf1 (subunit of the AMC complex) (from UniProt Q24572 1-430)
